Screen size: about 340,000 compounds; about 12,000 (3.5%) were called active. The shares of active, inactive and inconclusive entries below differ from those in the screen. The call rests on the fitted dose curve; in most records, active means well fitted inhibition curve with a large enough effect; inconclusive means small, poorly fitted or top-dose-only effect, or another doubt; inactive means no such curve, though single readings can be large or run the other way. Potencies of inconclusive entries are left out as doubtful fits.
Assay: qHTS Assay for Inhibitors of Hepatitis C Virus (HCV)
Details: Huh7.5.1 HCVcc-Cre (HCVcc is cell-culture hepatitis C virus) infection, luciferase reporter, 44 h; activity change, negative = inhibition: at 41.8 µM (top of the series) unless noted
Procedure, shortened: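 Reporter virus HCVcc-Cre (~0.5 moi) infects cells exposed to compound; seeding density 1,000 cells/well with 4 h settling beforehand. Luminescence, 15 sec read, taken 44 h post-infection following a 15 min RT substrate incubation.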
In the case of `O=C1CN(C(=O)/C=C/c2ccc(Br)cc2)CCN1`, the “activity change, negative = inhibition” value is reported as inactive: 0.151%. In the case of `Cc1ccc(CNC(=O)CSc2c3c(nc4cc(Cl)ccc24)CCCC3)o1`, the Potency is reported as active: 4.47 µM. For `CCN(CC)S(=O)(=O)c1cc(C(=O)NC2CCCCC2)ccc1C`, the Potency was inconclusive [inhibitor, single point]. For `CCn1nc(C)c(/C=N/NC(=O)c2ccc3c(c2)c(C)c(C)n3Cc2ccccc2)c1C`, the Potency was active: 10 µM. In the case of `CC(C)c1ccccc1OCC(=O)N(C)CC(=O)Nc1ccc(F)cc1`, the Potency is reported as inconclusive [inhibitor, full curve, poor fit]. For `Cc1ccc(S(=O)(=O)N2CCCC(CCC(=O)NCc3ccccc3F)C2)s1` (centres undefined), the Potency was inconclusive [inhibitor, single point]. For `CC(C)N1C(=O)/C(=C/C=C/c2ccco2)C(=O)N(Cc2ccco2)C1=O`, the Potency was inconclusive [inhibitor, single point]. With `Cc1cc(NC(=O)C2CCCCC2)nc2c1c(=O)oc1ccccc12` the Potency was inconclusive [inhibitor, single point]. With `Cc1ccc(Nc2nnc(-c3ccc(N4CCOCC4)c([N+](=O)[O-])c3)c3ccccc23)cc1` the Potency was active: 25.1 µM. With `COc1ccc(CCN(C)C(=O)CSc2nc3ncc(Cl)cc3[nH]2)cc1OC` the “activity change, negative = inhibition” value was inactive: 20.2%. For `CCc1sc(C(=O)N2CCN(c3ccc(F)cc3)CC2)cc1C`, the Potency was inconclusive [inhibitor, partial curve, poor fit]. For `CN(Cc1ccccc1)c1ccc(C(CC(N)=O)NC(=O)c2ccc(Br)cc2)cc1[N+](=O)[O-]` (centres undefined), the Potency was inconclusive [inhibitor, single point]. For `CCOC(=O)C1(CCc2ccccc2)CCN(Cc2cccc3nccnc23)CC1`, the Potency was inconclusive [inhibitor, single point]. For `CC(C)CC(=O)N1CCC(N(CCc2ccccc2)Cc2ccccc2)CC1`, the Potency was inconclusive [inhibitor, single point]. In the case of `Cc1ccc(C(CNS(=O)(=O)c2ccc(F)cc2C)N2CCN(C)CC2)cc1` (centres undefined), the Potency is reported as inconclusive [inhibitor, partial curve]. For `COc1ccc(CNC(=O)Cn2nnc3ccccc3c2=O)cc1`, the “activity change, negative = inhibition” value was inactive: -3.01%. With `Nc1n[nH]c(N)c1N=Nc1ccc(Cl)cc1Cl` the “activity change, negative = inhibition” value was inactive: -0.522%. For `O=C(Nc1ccccc1Cl)/C(Cl)=C(\Cl)S(=O)c1ccccc1` (centres undefined), the Potency was active: 11.2 µM. In the case of `OCCC1CN(Cc2ccon2)CCN1Cc1ccccc1` (centres undefined), the Potency is reported as inconclusive [inhibitor, single point]. For `CCOC(=O)NC(=O)CSc1nc(C)cc(C)c1C#N`, the “activity change, negative = inhibition” value was inactive: -1.31%. For `CC(=O)Nc1ccc(S(=O)(=O)N2CCc3cc4c(cc3C2)OCCCO4)cc1`, the Potency was inconclusive [inhibitor, single point]. With `Cc1ccc(C(=O)NCCNc2ccc([N+](=O)[O-])cc2C(F)(F)F)cc1` the Potency was inconclusive [inhibitor, partial curve]. For `NC(=O)c1c(NC(=O)c2ccccc2Cl)sc2c1CCC2`, the Potency was inconclusive [inhibitor, single point]. In the case of `O=C(NC(=S)Nc1ccc(S(=O)(=O)N2CCCC2)cc1)C1CCC1`, the “activity change, negative = inhibition” value is reported as inactive: 4.84%. For `Oc1ccccc1C(=S)N1CCN(c2cccc(Cl)c2)CC1`, the Potency was inconclusive [inhibitor, single point]. With `Cc1cc(C)cc(N(C(=O)CCC(=O)Nc2cc(C)on2)C(C(=O)NC2CCCC2)c2ccco2)c1` (centres undefined) the Potency was inconclusive [inhibitor, partial curve, poor fit]. For `O=C(Nc1cccnc1)c1ccc(COc2ccccc2Cl)o1`, the Potency was inconclusive [inhibitor, single point]. In the case of `CCN(CC)S(=O)(=O)c1ccc(N2CCCC2)c(NC(=O)Cc2ccccc2)c1`, the Potency is reported as inconclusive [inhibitor, single point]. With `COc1cccc(NC(=O)CN(C)C(=O)CCNS(=O)(=O)c2ccc(C)cc2)c1` the “activity change, negative = inhibition” value was inactive: -16.9%. With `COC(=O)Cc1c[nH]c2cccc(OCC(O)CN(Cc3ccccc3)C(C)C)c12` (centres undefined) the Potency was inconclusive [inhibitor, single point]. For `Fc1ccc(Nc2ncnc3sc4c(c23)CCC4)cc1F`, the Potency was inconclusive [inhibitor, single point]. With `CN(C)c1ccc2c(c1)C(=NO)c1ccccc1-2` the Potency was inconclusive [inhibitor, single point]. In the case of `Cc1cccc(CNc2ccc(S(=O)(=O)N3CCCCC3)cc2)c1`, the Potency is reported as inconclusive [inhibitor, partial curve]. With `COc1ccc(C)cc1-n1nnnc1SCn1nnc2ccccc2c1=O` the Potency was inconclusive [inhibitor, partial curve]. For `CCc1ccc(/C=C/C(=O)c2cc(Br)ccc(=O)c2O)cc1`, the Potency was inconclusive [inhibitor, partial curve]. In the case of `CCN1CCN(c2ncnc3sc4c(c23)CCC(C)C4)CC1` (centres undefined), the Potency is reported as inconclusive [inhibitor, partial curve]. With `COc1cc(SC)ccc1C(=O)Nc1nccs1` the Potency was inconclusive [inhibitor, single point]. In the case of `O=C(CCc1ccccc1)Nc1ccc2c(c1)C(=O)OC2`, the “activity change, negative = inhibition” value is reported as inactive: -13%. For `C[C@H](CCC(=O)NCC(=O)O)[C@H]1CC[C@H]2C3[C@H](O)C[C@@H]4C[C@H](O)CC[C@]4(C)[C@H]3C[C@H](O)[C@]12C` (some centres undefined), the “activity change, negative = inhibition” value was inactive: 22.9%. For `NC(=O)COc1cc2oc(=O)c3c(c2cc1Cl)CCCC3`, the Potency was inconclusive [inhibitor, single point]. For `O=S(=O)(NC1CCCCC1N1CCC(O)CC1)c1ccccc1` (centres undefined), the “activity change, negative = inhibition” value was inactive: 20.8%. For `Cc1cc(-c2ccccc2)nc(Oc2cccc(C(F)(F)F)c2)c1S(C)(=O)=O`, the Potency was inconclusive [inhibitor, single point]. For `CC1=C(C(=O)OCc2ccccc2)C(c2cccc([N+](=O)[O-])c2)NC(=O)N1C` (centres undefined), the Potency was inconclusive [inhibitor, single point]. In the case of `O=C(/C=C/Nc1ccc(F)cc1)c1ccc(Oc2ncccn2)cc1`, the “activity change, negative = inhibition” value is reported as inactive: -27.4%. In the case of `Cc1ccc(C)c(C(=O)N(C)CC(=O)Nc2ccccc2C(F)(F)F)c1`, the “activity change, negative = inhibition” value is reported as inactive: 0.141%. For `O=C(CSc1nc(-c2ccccc2)cs1)NC(=O)NCc1ccco1`, the Potency was inconclusive [inhibitor, partial curve]. In the case of `CC(=O)C[C@@H](O)CC(=O)[C@@H]1OC(=O)[C@H](C)C/C=C\Cc2ccccc21`, the Potency is reported as inconclusive [inhibitor, full curve]. In the case of `Cc1ccsc1/C=C1\SC(=S)N(CC2CCCO2)C1=O` (centres undefined), the Potency is reported as inconclusive [inhibitor, partial curve]. In the case of `Cc1nc(SCC(=O)NCc2ccco2)c2c3c(sc2n1)CCCC3`, the Potency is reported as inconclusive [inhibitor, partial curve]. For `CC(=O)Nc1ccc(-c2cn3c(n2)SCC3)cc1`, the Potency was inconclusive [inhibitor, single point]. For `O=C1NC(Cc2ccc(O)cc2)c2nc3ccc(Cl)cc3c(=O)n2-c2ccccc21` (centres undefined), the “activity change, negative = inhibition” value was inactive: 4.73%. In the case of `Cc1ccc(OCCCNC2CCCC2)cc1`, the “activity change, negative = inhibition” value is reported as inactive: 3.85%. For `NS(=O)(=O)c1ccc(Nc2nc(-c3cccnc3)cs2)cc1`, the Potency was active: 12.6 µM. With `Cc1ccc(S(=O)(=O)N(C)C)cc1NC(=O)CN1C(=O)NC2(CCCc3ccccc32)C1=O` (centres undefined) the Potency was inconclusive [inhibitor, partial curve]. With `COc1cc2c(cc1OC)CN(C(=O)/C=C/c1ccc(F)cc1)CC2` the “activity change, negative = inhibition” value was inactive: -22.4%. For `N/C(=N\S(=O)(=O)c1cc(C(F)(F)F)cc(C(F)(F)F)c1)c1ccc(Cl)cc1`, the Potency was inconclusive [inhibitor, single point]. For `Nc1ccc(C(=O)N2CCN(S(=O)(=O)/C=C/c3ccccc3)CC2)cc1[N+](=O)[O-]`, the Potency was inconclusive [inhibitor, full curve, poor fit]. In the case of `Cn1nc(C(=O)N2CCN(S(=O)(=O)c3ccc(Cl)cc3)CC2)c2ccccc2c1=O`, the Potency is reported as inconclusive [inhibitor, single point]. With `CCn1cc(C(=O)NCc2cccnc2)c(=O)c2cc(F)c(N3CCN(C(=O)c4ccco4)CC3)cc21` the Potency was inconclusive [inhibitor, single point]. In the case of `COCCC(=O)NC1CCCc2c1cnn2-c1cccc(C)c1C` (centres undefined), the “activity change, negative = inhibition” value is reported as inactive: -17.5%. In the case of `Cc1cc(OCC(=O)NCC2CCC(C(=O)O)CC2)c2c3c(c(=O)oc2c1)CCC3` (centres undefined), the Potency is reported as inconclusive [inhibitor, full curve]. In the case of `CCOc1cc(C)c(S(=O)(=O)Nc2ccc(F)cc2)cc1C`, the Potency is reported as inconclusive [inhibitor, partial curve]. For `COc1cccc(C(=O)OCC(=O)NCCCc2ccccc2)c1`, the “activity change, negative = inhibition” value was inactive: 10.9%. For `O=C(CCCCCn1c(SCc2ccncc2)nc2ccccc2c1=O)NCc1ccco1`, the Potency was active: 10 µM. For `CC(=O)Oc1ccc(/C=N\NC(=O)c2cc3c(ccc4ccccc43)o2)cc1`, the Potency was inconclusive [inhibitor, single point]. With `O=C(Nc1ccc2c(c1)Cc1cc([N+](=O)[O-])ccc1-2)C(F)(F)F` the Potency was inconclusive [inhibitor, single point]. For `COc1cccc(OC)c1C(=O)Nc1ccc(Br)c(C(=O)c2ccccc2)c1`, the Potency was inconclusive [inhibitor, single point]. For `COc1ccc(-n2c(SC)nnc2-c2c[nH]c3ccccc23)cc1`, the “activity change, negative = inhibition” value was inactive: 4.1%. In the case of `Cc1ccccc1OCC(=O)N/N=C/c1cc2ccccc2nc1Cl`, the Potency is reported as inconclusive [inhibitor, single point].

Reference: PubChem BioAssay AID651820 (National Center for Advancing Translational Sciences (NCATS), 2012)
On the % scale 0 is the no-effect control and ±100 the full control effect; potency means the concentration at half of the fitted maximal effect; tags describe the fitted curve by direction and shape.
